{"source": "PubChem BioAssay AID686979", "about": "(National Center for Advancing Translational Sciences (NCATS), 2013)", "note": "Hit rate of the full screen: of about 420,000 compounds, about 50,000 (12%) were called active. Inconclusive results, whose numbers are uncertain, are shown with a selection of clear calls. Calls come from the whole dose curve; as a rule, active = well fitted inhibition curve with a large enough effect; inconclusive = small, poorly fitted or top-dose-only effect; inactive = flat fitted curve, though single readings scatter. No potency is given beside an inconclusive call; the fits are too rough. % is set by controls: 0 for no effect and ±100 for the full control effect; potency is the fitted concentration of half-maximal effect; tags give direction and shape of the fitted curve."}
{"assay": "qHTS for Inhibitors of human tyrosyl-DNA phosphodiesterase 1 (TDP1): qHTS in cells in presence of CPT; note: nearly all actives have a fitted effect of over 55% in size", "conditions": "chicken DT40 Tdp1-/-;hTDP1 cells + 20 nM CPT, ATP luminescence, 48 h; activity change, negative = growth inhibition: at 46.2 µM (top of the series)", "method_in_brief": "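Chicken DT40 Tdp1-/- cells complemented with human TDP1, 400 cells/well, exposed to compounds plus 20 nM camptothecin for at least 48 h at 37 C; viability read as ATP content by CellTiter-Glo luminescence.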"}
{"smiles": "COCCn1c(SCc2ccc(C(=O)OC)o2)nc2cc(Cl)ccc2c1=O", "Potency": "inconclusive [inhibitor, single point]"}
{"smiles": "COCCn1c(SCC(=O)N2CCC(C)CC2)nc2c(c1=O)SCC2", "Potency": "inactive"}
{"smiles": "COc1ccc(-c2cn3nc(SCC(=O)Nc4cc(C)cc(C)c4)ccc3n2)cc1", "Potency": "inconclusive [inhibitor, single point]"}
{"smiles": "Cc1cc(=O)oc2cc(OCC(=O)Nc3ccc(CN4CCOCC4)cc3)ccc12", "Potency": "inconclusive [inhibitor, single point]"}
{"smiles": "CCc1cccc(C)c1NC(=O)Cn1ncc2c3ccccc3n(Cc3ccccc3)c2c1=O", "Potency": "active: 10.3 µM"}
{"smiles": "Cc1ccc(S(=O)(=O)N2CCOCC2)cc1NC(=O)CNCC1CCCCC1", "Potency": "inconclusive [inhibitor, single point]"}
{"smiles": "CCC(=O)c1ccc(OCC(O)CN2CCN(C(c3ccccc3)c3ccccc3)CC2)cc1", "note": "(stereo unspecified)", "Potency": "inconclusive [inhibitor, single point]"}
{"smiles": "CCOc1ccc(NC(=O)CNC(=O)c2nn(-c3ccc(OC)cc3)c(=O)c3ccccc23)cc1", "Potency": "inactive"}
{"smiles": "CCOC(=O)C1(CCCc2ccccc2)CCN(C(=O)[C@@H]2C[C@@H](C)NC(=S)N2)CC1", "Potency": "inconclusive [inhibitor, single point]"}
{"smiles": "COC1CCCCC1Nc1cccc(SC)c1", "note": "(stereo unspecified)", "Potency": "inconclusive [inhibitor, single point]"}
{"smiles": "[N-]=[N+]=Nc1nc2c(N)ncnc2n1C1OC(CO)C(O)C1O", "note": "(stereo unspecified)", "Potency": "active: 0.411 µM"}
{"smiles": "c1ccc(CNc2nc(NCc3ccco3)nc(N3CCOCC3)n2)cc1", "Potency": "inconclusive [inhibitor, single point]"}
{"smiles": "Cc1nn(C)c(=O)n1-c1ccc(Oc2ccccc2)cc1", "activity change, negative = growth inhibition": "inconclusive: -32.7% [inhibitor]"}
{"smiles": "Cc1cc(/C=C2/NC(=O)NC2=O)c(C)n1-c1ccc(C#N)cc1", "Potency": "inconclusive [inhibitor, single point]"}
{"smiles": "c1csc(-c2nc(NCCCN3CCOCC3)c3ccccc3n2)c1", "Potency": "inconclusive [inhibitor, single point]"}
{"smiles": "COc1cc(/C=C/C(=O)OCC(=O)N2CCN(S(=O)(=O)c3ccc(C)cc3C)CC2)ccc1O", "Potency": "inconclusive [inhibitor, single point]"}
{"smiles": "Cc1ccc(C(=O)OC(C)CN2CCN(C)CC2)cc1", "note": "(stereo unspecified)", "Potency": "inactive"}
{"smiles": "CN1CCN(c2ccc(Cl)cc2NC(=O)c2nn(-c3ccccc3)c(=O)c3ccccc23)CC1", "Potency": "inconclusive [inhibitor, single point]"}
{"smiles": "Cc1ccc(C2=NN(C(=O)CCl)C(c3cccs3)C2)o1", "note": "(stereo unspecified)", "Potency": "active: 2.06 µM"}
{"smiles": "CCCCOC(=O)c1ccc(Nc2nc3ccc(C(=O)c4ccccc4)cc3n3cnnc23)cc1", "Potency": "active: 20.6 µM"}
{"smiles": "COc1ccc(CNC(=O)c2ccc(CS(=O)(=O)c3ccc(Br)cc3)o2)cc1", "Potency": "active: 23.1 µM"}
{"smiles": "O=[N+]([O-])c1ccccc1N/N=C/c1cc2ccccc2nc1Cl", "Potency": "active: 4.11 µM"}
{"smiles": "CC(C)N1C(=O)/C(=C/c2nc3ccccc3c(=O)n2-c2ccccc2)c2ccccc21", "Potency": "active: 20.6 µM"}
{"smiles": "Cn1c(N)c(C(=O)COC(=O)CC(NC(=O)c2ccccc2Cl)c2ccccc2)c(=O)n(C)c1=O", "note": "(stereo unspecified)", "Potency": "inconclusive [inhibitor, single point]"}
{"smiles": "CCCc1cc(=O)oc2cc(C)cc(OCC(=O)NC(Cc3c[nH]c4ccc(O)cc34)C(=O)O)c12", "note": "(stereo unspecified)", "Potency": "inactive"}
{"smiles": "Cc1ccc(C)c(CN2C(=O)c3ccccc3S(=O)c3ccc(C(=O)NCCCN4CCCC4)cc32)c1", "note": "(stereo unspecified)", "Potency": "inconclusive [inhibitor, single point]"}
{"smiles": "O=c1c2ccccc2[nH]c2ccccc12", "Potency": "active: 8.2 µM"}
{"smiles": "CC(C)(C)NC(=O)COC(=O)c1cncc(Br)c1", "Potency": "inconclusive [inhibitor, single point]"}
{"smiles": "CC1CCCC(NC(=O)COC(=O)c2ccc(N(C)C)cc2)C1C", "note": "(stereo unspecified)", "Potency": "inconclusive [inhibitor, single point]"}
{"smiles": "CCCC1=NN(C(=O)C(=O)Nc2ccc(Br)cc2)C(O)(C(F)(F)F)C1", "note": "(stereo unspecified)", "Potency": "active: 4.11 µM"}
{"smiles": "OC[C@@H]1CN(Cc2ccc(F)cc2)C[C@H](n2cnc3c(NC4CC4)ncnc32)O1", "Potency": "inconclusive [inhibitor, single point]"}
{"smiles": "COC1CCN(Cc2c(C(=O)N3CCc4ccccc4C3)nc3ccc(Cl)cn23)CC1", "Potency": "inactive"}
{"smiles": "C=CCN1CCS(=O)(=O)N(Cc2ccccc2)[C@@H](C(C)C)C1=O", "Potency": "inactive"}
{"smiles": "CCOc1ccc(/C(O)=C2/C(=O)C(=O)N(c3ccccn3)C2c2ccc(F)cc2)c(C)c1", "note": "(stereo unspecified)", "Potency": "inconclusive [inhibitor, single point]"}
{"smiles": "Nc1nc(CN2CCN(c3ccccc3F)CC2)nc(Nc2ccc3c(c2)OCCO3)n1", "Potency": "inconclusive [inhibitor, partial curve]"}
{"smiles": "O=c1c(N2CCN(c3cccc(Cl)c3)CC2)csc2ccc(Cl)cc12", "Potency": "inconclusive [inhibitor, single point]"}
{"smiles": "COc1ccc(S(=O)(=O)N2CC=C(C(=O)Nc3ccc(NC(C)=O)cc3)CC2)cc1", "Potency": "inactive"}
{"smiles": "COc1ccc(NC(=O)CN2C(=O)CSC2=O)cc1", "Potency": "inactive"}
{"smiles": "COc1ccccc1OCCn1cc(C(=O)C(C)C)c2ccccc21", "Potency": "inconclusive [inhibitor, single point]"}
{"smiles": "Cc1cc([N+](=O)[O-])nn1Cc1ccc(C(=O)N/N=C/c2ccc(O)cc2O)cc1", "Potency": "inconclusive [inhibitor, single point]"}
{"smiles": "O=C(Nc1ccc(Br)cc1)c1cc(S(=O)(=O)Nc2ccccn2)ccc1Cl", "Potency": "inconclusive [inhibitor, single point]"}
{"smiles": "CSc1ccc(C(=S)N2CCN(Cc3ccccc3)CC2)cc1", "Potency": "inactive"}
{"smiles": "CC(C)CCN(Cc1ccco1)S(=O)(=O)c1ccc(-c2ccc(=O)[nH]n2)s1", "Potency": "inconclusive [inhibitor, single point]"}
{"smiles": "Cc1nc(-c2ccc(C(=O)Nc3cccc(Br)c3)cc2)cs1", "Potency": "inconclusive [inhibitor, single point]"}
{"smiles": "CCN(CC)Cc1c[nH]c2c(C(=O)OC)cccc12", "Potency": "inactive"}
{"smiles": "CCOC(=O)Cc1csc(NS(=O)(=O)c2ccc3ccccc3c2)n1", "activity change, negative = growth inhibition": "inconclusive: -31.9% [inhibitor]"}
{"smiles": "CCCCCCc1cc2cc(S(=O)(=O)c3ccc(F)cc3)c(=O)oc2cc1O", "Potency": "active: 20.6 µM"}
{"smiles": "Cc1cc2ncn(CC(O)COC3CCCCC3)c2cc1C", "note": "(stereo unspecified)", "Potency": "inconclusive [inhibitor, single point]"}
{"smiles": "O=C(NCC(=O)N1CCN(S(=O)(=O)/C=C/c2ccccc2)CC1)c1ccccc1F", "Potency": "inactive"}
{"smiles": "CN(CCOc1ccc(Cl)cc1)C(=O)c1cccc(S(=O)(=O)N2CCN(c3ccccc3)CC2)c1", "Potency": "active: 14.6 µM"}
{"smiles": "COc1ccc(-n2c(Cc3cccn3C)nnc2SCC(=O)Nc2nc(C)cs2)cc1", "Potency": "inactive"}
{"smiles": "Cc1ccc2c(c1)c(C)c(C)n2CC(O)Cn1nnc2ccccc21", "note": "(stereo unspecified)", "Potency": "inconclusive [inhibitor, partial curve, poor fit]"}
{"smiles": "Brc1cc(Br)c2nc(-c3ccc(N4CCOCC4)cc3)ccc2c1", "Potency": "inconclusive [inhibitor, single point]"}
{"smiles": "O=C(Sc1ccc(Cl)cc1)c1ccccn1", "Potency": "active: 16.4 µM"}
{"smiles": "COCCCNC(=S)N1CCC(C(=O)c2ccc3c(c2)OCCO3)CC1", "Potency": "inconclusive [inhibitor, single point]"}
{"smiles": "COc1cc(NC(=O)c2cc(Cl)nnc2Cl)cc(OC)c1OC", "Potency": "inconclusive [inhibitor, single point]"}
{"smiles": "COc1ccccc1-n1c(SCC(=O)N2CCOCC2)nc2ccccc2c1=O", "Potency": "inactive"}
{"smiles": "CCOC(=O)c1[nH]c(C)c(CCC(=O)Nc2cc(Cl)c(OC)cc2OC)c1C", "Potency": "inconclusive [inhibitor, single point]"}
{"smiles": "CC(C)(C)c1nnc(NC(=O)c2ccc3c(c2)OCO3)s1", "Potency": "inconclusive [inhibitor, single point]"}
{"smiles": "Cn1c(-c2ccccc2)c(C=O)c2ccccc21", "Potency": "inactive"}
{"smiles": "CC1CCN(C(=O)CCC(=O)Nc2nnc(C3CCCCC3)s2)CC1", "Potency": "inconclusive [inhibitor, single point]"}
{"smiles": "Cc1cccc(C(=O)N2CCC(=O)N(C(COCc3ccccc3)Cc3ccccc3)CC2)c1", "note": "(stereo unspecified)", "Potency": "inconclusive [inhibitor, single point]"}
{"smiles": "CC(C)c1ccc(NC(=O)[C@H](NC(=O)[C@@H]2Cc3ccccc3CN2)c2ccccc2)cc1", "Potency": "inconclusive [inhibitor, single point]"}
{"smiles": "Cc1ccc(NC(=O)CN2c3cccc4cccc(c34)S2(=O)=O)cc1", "Potency": "active: 23.1 µM"}
{"smiles": "c1coc(-c2nnc3sc(C4CCCCC4)nn23)c1", "Potency": "inconclusive [inhibitor, single point]"}
{"smiles": "Cc1ccc(S(=O)(=O)c2c(N)n(Cc3ccco3)c3nc4ccccc4nc23)cc1C", "Potency": "inconclusive [inhibitor, single point]"}
{"smiles": "CC(C)c1ccc(N(CC(=O)NCCCN2CCOCC2)S(=O)(=O)c2ccccc2)cc1", "Potency": "active: 18.4 µM"}
{"smiles": "CCC(C)NC(=O)c1cn(CC)c2ccc(S(=O)(=O)N3CCc4ccccc4C3)cc2c1=O", "note": "(stereo unspecified)", "Potency": "active: 20.6 µM"}
{"smiles": "O=C(Cn1cc[n+](CC(=O)c2ccc(Cl)cc2Cl)c1)c1ccc(Cl)cc1Cl", "Potency": "inconclusive [inhibitor, single point]"}
{"smiles": "Cc1ccc(NC(=O)/C=C/C(=O)O)c([N+](=O)[O-])c1", "Potency": "inactive"}
{"smiles": "CC(C)=CCN1CCN(Cc2ccc(C#CC(C)(C)O)s2)CC1CCO", "note": "(stereo unspecified)", "Potency": "inactive"}
